# Experimental data taken from PubChem BioAssay AID1768 (National Center for Advancing Translational Sciences (NCATS), 2009).
# Screen size: about 270,000 compounds; about 620 (0.23%) were called active. Inconclusive means that the source gave no clear call. Such entries were picked first, then a sample of the others. Calls come from the whole dose curve; as a rule, active = well fitted inhibition curve with a large enough effect in the polarisation, with a control signal flat (not every such curve was filed as active); inconclusive = small, poorly fitted or top-dose-only effect, or effect the other way, or a change in a side signal; inactive = no such curve, though single readings can be large or run the other way; the % refers to the polarisation. Where the call is inconclusive, the potency comes from a doubtful curve fit. “Side channel” marks fits to a control or component signal instead of the main read-out.
# Target: Menin (Homo sapiens) (UniProt O00255)
# Experiment: qHTS Assay for Inhibitors Targeting the Menin-MLL Interaction in MLL Related Leukemias: Competition With Texas Red Labeled MLL-derived Mutant Peptide; for FP activity change, negative = inhibition: % of control where 0% means no effect
# Settings: fluorescence polarization; FP activity change, negative = inhibition: at 61.6 µM (top of the series)
# Potency is the fitted concentration of half-maximal effect; tags give direction and shape of the fitted curve or compound fluorescence and quenching.
# Sequence of UniProt O00255 (O00255 whole entry, looked up): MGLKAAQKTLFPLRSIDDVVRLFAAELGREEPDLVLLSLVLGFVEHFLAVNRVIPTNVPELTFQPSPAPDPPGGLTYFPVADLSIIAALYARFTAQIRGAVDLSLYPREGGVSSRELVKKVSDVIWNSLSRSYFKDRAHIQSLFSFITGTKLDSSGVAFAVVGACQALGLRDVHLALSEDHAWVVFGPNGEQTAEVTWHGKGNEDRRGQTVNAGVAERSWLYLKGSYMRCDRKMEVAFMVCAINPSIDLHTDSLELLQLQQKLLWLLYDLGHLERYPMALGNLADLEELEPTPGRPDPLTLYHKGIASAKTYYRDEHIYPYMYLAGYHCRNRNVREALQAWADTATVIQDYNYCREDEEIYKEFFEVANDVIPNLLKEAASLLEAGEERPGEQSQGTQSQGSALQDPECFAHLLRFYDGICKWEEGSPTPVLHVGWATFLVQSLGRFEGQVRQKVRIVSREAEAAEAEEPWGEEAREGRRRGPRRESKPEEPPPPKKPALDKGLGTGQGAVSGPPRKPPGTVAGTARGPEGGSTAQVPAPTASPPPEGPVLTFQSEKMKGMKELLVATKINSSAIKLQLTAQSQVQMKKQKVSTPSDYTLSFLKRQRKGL
Structure (SMILES),Potency,"FP activity change, negative = inhibition"
COc1ccc(NC(=S)NC(NC(=O)c2cccc(Cl)c2)C(Cl)(Cl)Cl)c([N+](=O)[O-])c1 (centres undefined),"inconclusive: 3.55 µM [quencher, side channel, partial curve]",–
CCNc1ncc2nc(-c3cccs3)c(=O)n(Cc3cccc(OC)c3)c2n1,"inconclusive: 7.08 µM [inhibitor, single point]",–
Cc1cccc(CNc2ccnc(-c3ccoc3)n2)c1,"inconclusive: 1.41 µM [inhibitor, full curve, poor fit]",–
CC(C)(C)CC(=O)Nc1nnc(SCC(=O)NC2CCCC2)s1,"inconclusive: 22.4 µM [inhibitor, partial curve, poor fit]",–
O=C(Nc1ccc(/C=C/c2nc3ccccc3o2)cc1)c1c(F)cccc1F,"inconclusive: 7.94 µM [quencher, side channel, partial curve]",–
COc1ccc(C=O)cc1COc1ccc(F)cc1F,"inconclusive: 17.8 µM [quencher, side channel, partial curve]",–
O=C(/C=C/c1ccco1)Nc1ccccc1C(=O)O,"inconclusive: 7.08 µM [quencher, side channel, partial curve]",–
Cc1cc(C)cc(CN2CCC(Oc3ccc(C(=O)N4CCCC4)cc3)CC2)c1,"inconclusive: 39.8 µM [inhibitor, single point]",–
C=CCOC(=O)C(=O)/C=C/c1csc2ccccc12,"inconclusive: 25.1 µM [quencher, side channel, partial curve]",–
O=C1CN(S(=O)(=O)c2ccccc2)CC(=O)N1CCc1ccccc1,"inconclusive: 35.5 µM [inhibitor, single point]",–
CC(C)=NNc1nc(-c2ccccc2)c(C)s1,"inconclusive: 31.6 µM [quencher, side channel, single point]",–
COc1cc(C(=O)O[C@@H]2CC3CC[C@]2(C)C3(C)C)ccc1O,inactive,–
Cc1ccc(N=Nc2c(C)[nH]n(C(N)=S)c2=O)cc1,"inconclusive: 20 µM [quencher, side channel, single point]",–
CCc1cc2ccc(C)cc2nc1SCC(=O)Nc1cc(OC)c(OC)cc1C(=O)O,"inconclusive: 39.8 µM [quencher, side channel, single point]",–
CS(=O)(=O)N1N=C(c2ccc3nccnc3c2)CC1c1ccccc1 (centres undefined),"inconclusive: 39.8 µM [fluorescent, partial curve]",–
Cc1cc(Cl)cc(Br)c1OCCCNCC(C)O (centres undefined),"inconclusive: 15.8 µM [fluorescent, side channel, partial curve]",–
Oc1cc(-c2ccccc2)c2ccccc2c1,"inconclusive: 28.2 µM [quencher, side channel, single point]",–
COc1ccc(/C=N/NC(=O)c2ccn[nH]2)cc1COc1ccc(Cl)cc1,"inconclusive: 10 µM [quencher, side channel, partial curve]",–
Cc1cccc(NC(=O)NNC(=O)c2ccc3ccccc3c2O)c1,"inconclusive: 28.2 µM [quencher, side channel, partial curve]",–
C=CCOc1ccccc1C1C2=C(CC(C)(C)CC2=O)Nc2c1c(=O)n(C)c(=O)n2C (centres undefined),inactive,–

Structure (SMILES),Potency,"FP activity change, negative = inhibition"
CCN(c1ccccc1)S(=O)(=O)c1ccc(NC(=S)NC(=O)c2ccc(Br)o2)cc1,"inconclusive: 17.8 µM [inhibitor, partial curve]",–
Cc1cc2ncc(-c3ccc(Cl)cc3)c(N)n2n1,"inconclusive: 22.4 µM [inhibitor, partial curve, poor fit]",–
NC(=O)N/N=C/c1cn(-c2ccccc2)nc1-c1cccs1,"inconclusive: 15.8 µM [quencher, side channel, partial curve]",–
CC(Oc1cccc(Cl)c1)c1ccnc2nc(/N=C/N(C)C)nn12 (centres undefined),"inconclusive: 10 µM [inhibitor, partial curve]",–
CC(C)Oc1cccc(C(=O)NC(=S)NCc2cccnc2)c1,"inconclusive: 39.8 µM [fluorescent, side channel, single point]",–
Cc1nc(NCCc2ccc(Cl)cc2)c2nnn(Cc3ccccc3)c2n1,"inconclusive: 39.8 µM [fluorescent, side channel, single point]",–
CCN(CC)C(=O)CSc1nc2c(c(-c3cccnc3)c1C#N)CCCC2,"inconclusive: 10 µM [inhibitor, partial curve]",–
CO[C@H]1COC(=O)C/C=C\[C@@H](C)COC(=O)[C@@H](C)NC(=O)C/C=C\[C@@H]1C,–,inactive: 5.3% [at 11.7 µM]
CCCc1ccc(-c2c(C)sc(N)c2C#N)cc1,"inconclusive: 28.2 µM [quencher, side channel, partial curve]",–
CCOC(=O)CC(=O)c1cc(OC)c(OC)c(OC)c1,"inconclusive: 39.8 µM [inhibitor, single point]",–
COc1ccccc1-c1cncnc1N1CCN(C)CC1,"inconclusive: 39.8 µM [inhibitor, single point]",–
COc1ccc(-c2oc3ccc(-c4cc(OC)c(OC)c(OC)c4)cc3c2-c2ccc(OC)nc2)cc1,"inconclusive: 3.16 µM [inhibitor, single point]",–
O=C(Nc1nccc(-c2cccs2)n1)c1ccccc1Cl,"inconclusive: 39.8 µM [fluorescent, partial curve, poor fit]",–
Cc1sc(NC(=O)CN2CCCC2)nc1-c1ccc2c(c1)CCN2C(=O)c1ccc(F)cc1,"inconclusive: 15.8 µM [inhibitor, partial curve]",–
N#Cc1nc(Cc2ccccc2)oc1NCc1ccccc1,inactive,–
NC(=S)NN=C1c2cc(S(=O)(=O)N3CCOCC3)ccc2-c2ccc(S(=O)(=O)N3CCOCC3)cc21,"inconclusive: 15.8 µM [quencher, side channel, partial curve]",–
O=C(/C=C/c1ccc(Cl)cc1Cl)Nc1ccncc1,"inconclusive: 14.1 µM [quencher, side channel, partial curve]",–
Cc1ccc(CNC(=O)CS(=O)(=O)Cc2nc(-c3ccc(C)cc3)oc2C)cc1,"inconclusive: 35.5 µM [inhibitor, single point]",–
CCc1cccc(CC)c1NC(=S)NCc1ccc2[nH]c(C)cc2c1,"inconclusive: 17.8 µM [quencher, side channel, partial curve, poor fit]",–
NC(=O)c1ccsc1NC(=O)c1ccc(S(=O)(=O)N2CCCC2)cc1,"inconclusive: 11.2 µM [quencher, side channel, partial curve]",–

Structure (SMILES),Potency,"FP activity change, negative = inhibition"
Cc1ccc2[nH]c(=O)c(CN(Cc3cccs3)C(=S)NCc3ccco3)cc2c1,"inconclusive: 39.8 µM [inhibitor, single point]",–
CCCCOc1ncnc2c1[nH]c1ccc(F)cc12,"inconclusive: 31.6 µM [inhibitor, single point]",–
O=C1c2ccccc2NC(c2ccc(O)cc2)N1Cc1ccco1 (centres undefined),inactive,–
CC(=O)Nc1sc2c(c1C#N)CCCCC2,inactive,–
COC(=O)c1cc(C(=O)Nc2nc3ccccc3[nH]2)cc([N+](=O)[O-])c1,"inconclusive: 14.1 µM [quencher, side channel, partial curve]",–
Cc1ccccc1-n1c(SCC(=O)Nc2ccccc2)nc2nc3c(cc2c1=O)CCCC3,"inconclusive: 8.91 µM [fluorescent, side channel, full curve]",–
Cc1ccc(O)c(NC(=S)NC(=O)/C=C/c2ccco2)c1,"inconclusive: 12.6 µM [quencher, side channel, partial curve]",–
CCOc1ccc(S(=O)(=O)N(CC)CC(=O)NCc2ccccn2)cc1C,"inconclusive: 39.8 µM [quencher, side channel, single point]",–
O=C(N/N=C/c1ccco1)c1cc(-c2ccc(Cl)s2)[nH]n1,"inconclusive: 5.01 µM [fluorescent, side channel, full curve, poor fit]",–
COc1ccc2[nH]c(CN3CCN(CC(C)C)C(CCO)C3)c(C)c2c1 (centres undefined),"inconclusive: 17.8 µM [inhibitor, partial curve]",–
COC(=O)c1ccc(CSc2nc3c(c(=O)n2-c2ccc(Br)cc2)SCC3)o1,"inconclusive: 7.08 µM [fluorescent, side channel, full curve]",–
CCn1ccnc1CN1CCCC(C(=O)c2ccc3cc(OC)ccc3c2)C1 (centres undefined),"inconclusive: 2 µM [fluorescent, side channel, full curve]",–
O=C(NCCO)c1cccc(Nc2nc(-c3ccccc3)c3cc(Cl)ccc3n2)c1,"inconclusive: 7.94 µM [inhibitor, single point]",–
O=C(Nc1ccc(Br)c(Cl)c1)c1ccco1,"inconclusive: 28.2 µM [quencher, side channel, single point]",–
CCOC(=O)c1c(C)[nH]c(C=Nc2ccc(OC)cc2)c1O,"inconclusive: 39.8 µM [quencher, side channel, single point]",–
O=[N+]([O-])c1ccc(N/N=C2\CC3CC=CC23)cc1 (centres undefined),"inconclusive: 14.1 µM [quencher, side channel, partial curve]",–
COc1cc(/C(C#N)=C/c2ccccc2)c([N+](=O)[O-])cc1OC,"inconclusive: 28.2 µM [quencher, side channel, single point]",–
COC(=O)c1ccc(NC(=O)Cc2ccc(F)cc2)cc1,"inconclusive: 31.6 µM [quencher, side channel, single point]",–
O=C1NN(c2cccc(Br)c2)C(=O)/C1=C\c1ccc(N2CCOCC2)cc1,"inconclusive: 28.2 µM [quencher, side channel, single point]",–
